Where a chain is given by its changes, count along the chain named. Where two headings read alike, the source gives them in different places.
B1: v38732 (other)
heavy 1: NPPTFSPALLVVTEGDNATFTCSFSNTSESFVLNWYRMSPSNQTDKLAAFPEDRSQPGQDARFRVTQLPNGRDFHMSVVRARRNDSGTYLCGAISLAPKAQIKESLRAELRVTEGGGGSGEVQLVESGGGLVQPGGSLRLSCAASGVTFNYYGMSWIRQAPGKGLEWVASITSSGGRIYYPDSVKGRFTISRENTQKTLYLQMNSLRAEDTAVYYCTLDGRDGWVAYWGQGTLVTVSSASTKGPSVFPLAPSSKSTSGGTAALGCLVKDYFPEPVTVSWNSGALTSGVHTFPAVLQSSGLYSLSSVVTVPSSSLGTQTYICNVNHKPSNTKVDKK[human IgG1 Fc with changes not shown]
light: NFMLTQPHSVSESPGKTVTISCKRNTGNIGSNYVNWYQQHEGSSPTTIIYRNDKRPDGVSDRFSGSIDRSSKSASLTISNLKTEDEADYFCQSYSSGFIFGGGTKLTVLGQPKAAPSVTLFPPSSEELQANKATLVCLISDFYPGAVTVAWKADSSPVKAGVETTTPSKQSNNKYAASSYLSLTPEQWKSHRSYSCQVTHEGSTVEKTVAPTECS
heavy 2: QVQLVESGGGLVQPGGSLRLSCSVSGIDLSSNPMIWVRQAPGKGLQYIGIIDTDGSTYYADWAKGRFTISKDSTTVYLQINSPRAEDTAVYYCARRLHGSSNGYYDDLWGQGTLVTVSSGGGGSGGGGSGGGGSGGGGSDGQMTQSPSSVSASVGDRVTITCQASQSIYSYLSWYQQKPGQRPKLLIYKASTLASGVPSRFSGSGSGTDFTLTISSVQPEDFATYYCQQGYTVTNVDKNTFGGGTKVEIKAAEPKSSDKTHTCPPCPAPEAAGGPSVFLFPPKPKDTLMISRTPEVTCVVVSVSHEDPEVKFNWYVDGVEVHNAKTKPREEQYNSTYRVVSVLTVLHQDWLNGKEYKCKVSNKALPAPIEKTISKAKGQPREPQVYVLPPSRDELTKNQVSLLCLVKGFYPSDIAVEWESNGQPENNYLTWPPVLDSDGSFFLYSKLTVDKSRWQQGNVFSCSVMHEALHNHYTQKSLSLSPG
notes: CD3 Fab x Cldn18.2 scFv Fc, wildtype (WT) PD-1 attached to HC1 (N-term)
B2: v38731 (other)
heavy 1: NPPTFSPALLVVTEGDNATFTCSFSNTSESFVLNWYRMSPSNQTDKLAAFPEDRSQPGQDARFRVTQLPNGRDFHMSVVRARRNDSGTYLCGAISLAPKLQIKESLRAELRVTEGGGGSGEVQLVESGGGLVQPGGSLRLSCAASGVTFNYYGMSWIRQAPGKGLEWVASITSSGGRIYYPDSVKGRFTISRENTQKTLYLQMNSLRAEDTAVYYCTLDGRDGWVAYWGQGTLVTVSSASTKGPSVFPLAPSSKSTSGGTAALGCLVKDYFPEPVTVSWNSGALTSGVHTFPAVLQSSGLYSLSSVVTVPSSSLGTQTYICNVNHKPSNTKVDKK[human IgG1 Fc with changes not shown]
light: B1 light
heavy 2: B1 heavy 2
B3: v38412 (other)
heavy 1: EVQLVESGGGLVQPGGSLRLSCAASGVTFNYYGMSWIRQAPGKGLEWVASITSSGGRIYYPDSVKGRFTISRENTQKTLYLQMNSLRAEDTAVYYCTLDGRDGWVAYWGQGTLVTVSSASTKGPSVFPLAPSSKSTSGGTAALGCLVKDYFPEPVTVSWNSGALTSGVHTFPAVLQSSGLYSLSSVVTVPSSSLGTQTYICNVNHKPSNTKVDKKVEPKSCDKTHTCPPCPAPEAAGGPSVFLFPPKPKDTLMISRTPEVTCVVVSVSHEDPEVKFNWYVDGVEVHNAKTKPREEQYNSTYRVVSVLTVLHQDWLNGKEYKCKVSNKALPAPIEKTISKAKGQPREPQVYVYPPSRDELTKNQVSLTCLVKGFYPSDIAVEWESNGQPENNYKTTPPVLDSDGSFALVSKLTVDKSRWQQGNVFSCSVMHEALHNHYTQKSLSLSPGGGGGSGQVQLVESGGGLVQPGGSLRLSCSVSGIDLSSNPMIWVRQAPGKGLQYIGIIDTDGSTYYADWAKGRFTISKDSTTVYLQINSPRAEDTAVYYCARRLHGSSNGYYDDLWGQGTLVTVSSGGGGSGGGGSGGGGSGGGGSDGQMTQSPSSVSASVGDRVTITCQASQSIYSYLSWYQQKPGQRPKLLIYKASTLASGVPSRFSGSGSGTDFTLTISSVQPEDFATYYCQQGYTVTNVDKNTFGGGTKVEIK
light: [about 120 residues not shown]GGGSGNFMLTQPHSVSESPGKTVTISCKRNTGNIGSNYVNWYQQHEGSSPTTIIYRNDKRPDGVSDRFSGSIDRSSKSASLTISNLKTEDEADYFCQSYSSGFIFGGGTKLTVLGQPKAAPSVTLFPPSSEELQANKATLVCLISDFYPGAVTVAWKADSSPVKAGVETTTPSKQSNNKYAASSYLSLTPEQWKSHRSYSCQVTHEGSTVEKTVAPTECS
heavy 2: B1 heavy 2
B4: v38520 (other)
heavy 1: [about 120 residues not shown]AAAKEAAAKEVQLVESGGGLVQPGGSLRLSCAASGVTFNYYGMSWIRQAPGKGLEWVASITSSGGRIYYPDSVKGRFTISRENTQKTLYLQMNSLRAEDTAVYYCTLDGRDGWVAYWGQGTLVTVSSASTKGPSVFPLAPSSKSTSGGTAALGCLVKDYFPEPVTVSWNSGALTSGVHTFPAVLQSSGLYSLSSVVTVPSSSLGTQTYICNVNHKPSNTKVDKK[human IgG1 Fc with changes not shown]
light: B1 light
heavy 2: DIQMTQSPSSLSASVGDRVTITCSASSSVSYMHWYQQKSGKAPKLLIYDTSKLASGVPSRFSGSGSGTDFTLTISSLQPEDFATYYCQQWSKHPLTFGQGTKLEIKGGGGSGGGGSGGGGSGGGGSQVQLVQSGAEVKKPGASVKVSCKASGYSFTGYTMNWVRQAPGQGLEWMGLITPYNGASSYNQKFRGKATMTVDTSTSTVYMELSSLRSEDTAVYYCARGGYDGRGFDYWGQGTLVTVSSAAEPKSSDKTHTCPPCPAPEAAGGPSVFLFPPKPKDTLMISRTPEVTCVVVSVSHEDPEVKFNWYVDGVEVHNAKTKPREEQYNSTYRVVSVLTVLHQDWLNGKEYKCKVSNKALPAPIEKTISKAKGQPREPQVYVLPPSRDELTKNQVSLLCLVKGFYPSDIAVEWESNGQPENNYLTWPPVLDSDGSFFLYSKLTVDKSRWQQGNVFSCSVMHEALHNHYTQKSLSLSPG
B5: v38736 (other)
heavy 1: NPPTFSPALLVVTEGDNATFTCSFSNTSESFVLNWYRMSPSNQTDKLAAFPEDRSQPGQDARFRVTQLPNGRDFHMSVVRARRNDSGTYLCGAISLAPKAQIKESLRAELRVTEGGGGSGQVQLVESGGGLVQPGGSLRLSCSVSGIDLSSNPMIWVRQAPGKGLQYIGIIDTDGSTYYADWAKGRFTISKDSTTVYLQINSPRAEDTAVYYCARRLHGSSNGYYDDLWGQGTLVTVSSASTKGPSVFPLAPSSKSTSGGTAALGCLVKDYFPEPVTVSWNSGALTSGVHTFPAVLQSSGLYSLSSVVTVPSSSLGTQTYICNVNHKPSNTKVDKKVEPKSCDKTHTCPPCPAPEAAGGPSVFLFPPKPKDTLMISRTPEVTCVVVSVSHEDPEVKFNWYVDGVEVHNAKTKPREEQYNSTYRVVSVLTVLHQDWLNGKEYKCKVSNKALPAPIEKTISKAKGQPREPQVYVLPPSRDELTKNQVSLLCLVKGFYPSDIAVEWESNGQPENNYLTWPPVLDSDGSFFLYSKLTVDKSRWQQGNVFSCSVMHEALHNHYTQKSLSLSPG
light: DGQMTQSPSSVSASVGDRVTITCQASQSIYSYLSWYQQKPGQRPKLLIYKASTLASGVPSRFSGSGSGTDFTLTISSVQPEDFATYYCQQGYTVTNVDKNTFGGGTKVEIKRTVAAPSVFIFPPSDEQLKSGTASVVCLLNNFYPREAKVQWKVDNALQSGNSQESVTEQDSKDSTYSLSSTLTLSKADYEKHKVYACEVTHQGLSSPVTKSFNRGEC
heavy 2: EVQLVESGGGLVQPGGSLRLSCAASGVTFNYYGMSWIRQAPGKGLEWVASITSSGGRIYYPDSVKGRFTISRENTQKTLYLQMNSLRAEDTAVYYCTLDGRDGWVAYWGQGTLVTVSSGGGGSGGGGSGGGGSGGGGSNFMLTQPHSVSESPGKTVTISCKRNTGNIGSNYVNWYQQHEGSSPTTIIYRNDKRPDGVSDRFSGSIDRSSKSASLTISNLKTEDEADYFCQSYSSGFIFGGGTKLTVLA[human IgG1 Fc with changes not shown]
notes: Cldn18.2 Fab x CD3 scFv Fc, wildtype (WT) PD-1 attached to HC2 (N-term)
B6: v38735 (other)
heavy 1: B5 heavy 1 with A100L
light: B5 light
heavy 2: EVQLVESGGGLVQPGGSLRLSCAASGVTFNYYGMSWIRQAPGKGLEWVASITSSGGRIYYPDSVKGRFTISRENTQKTLYLQMNSLRAEDTAVYYCTLDGRDGWVAYWGQGTLVTVSSGGGGSGGGGSGGGGSGGGGSNFMLTQPHSVSESPGKTVTISCKRNTGNIGSNYVNWYQQHEGSSPTTIIYRNDKRPDGVSDRFSGSIDRSSKSASLTISNLKTEDEADYFCQSYSSGFIFGGGTKLTVLA[human IgG1 Fc with changes not shown]
B7: v38522 (other)
heavy 1: [about 120 residues not shown]AAAKEAAAKEVQLVESGGGLVQPGGSLRLSCAASGVTFNYYGMSWIRQAPGKGLEWVASITSSGGRIYYPDSVKGRFTISRENTQKTLYLQMNSLRAEDTAVYYCTLDGRDGWVAYWGQGTLVTVSSASTKGPSVFPLAPSSKSTSGGTAALGCLVKDYFPEPVTVSWNSGALTSGVHTFPAVLQSSGLYSLSSVVTVPSSSLGTQTYICNVNHKPSNTKVDKK[human IgG1 Fc with changes not shown]
light: B1 light
heavy 2: B1 heavy 2
B8: v38729 (other)
heavy 1: NPPTFSPALLVVTEGDNATFTCSFSNTSESFRLVWHRESPGYETDTLASFPEDRSTPLPDARFRVTQLPNGRDFHMSVVRARRNDSGTYVCGAIAFHPVIQIKESLRAELRVTEGGGGSGEVQLVESGGGLVQPGGSLRLSCAASGVTFNYYGMSWIRQAPGKGLEWVASITSSGGRIYYPDSVKGRFTISRENTQKTLYLQMNSLRAEDTAVYYCTLDGRDGWVAYWGQGTLVTVSSASTKGPSVFPLAPSSKSTSGGTAALGCLVKDYFPEPVTVSWNSGALTSGVHTFPAVLQSSGLYSLSSVVTVPSSSLGTQTYICNVNHKPSNTKVDKK[human IgG1 Fc with changes not shown]
light: B1 light
heavy 2: B1 heavy 2

Key:
Human CD3 (recombinant) [1] = target: Human CD3 (recombinant) (human); assay: SPR, CD3 amine-coupled, variant as analyte, 1:1 model
Sequence of Human CD3 (recombinant) (chain, as listed by the source): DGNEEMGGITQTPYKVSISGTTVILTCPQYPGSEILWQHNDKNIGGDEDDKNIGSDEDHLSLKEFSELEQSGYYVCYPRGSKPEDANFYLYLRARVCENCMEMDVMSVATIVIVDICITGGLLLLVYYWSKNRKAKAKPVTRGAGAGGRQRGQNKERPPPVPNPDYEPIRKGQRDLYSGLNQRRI

Human PD-L1 [2] = target: T1, Human PD-L1 (human, UniProt Q9NZQ7 in part); assay: SPR, PD-L1 amine-coupled, variant as analyte, 1:1 model
T1 construct: Amine-coupled to a CM5 chip for SPR; also called recombinant human PD-L1

Human mesothelin = target: T2, Human mesothelin (human, UniProt Q13421 296-580, limits assumed); assay: SPR, mesothelin amine-coupled, variant as analyte, 1:1 model
Sequence of Human mesothelin (Q13421 other isoform, or with tags, fused parts or gaps limits assumed): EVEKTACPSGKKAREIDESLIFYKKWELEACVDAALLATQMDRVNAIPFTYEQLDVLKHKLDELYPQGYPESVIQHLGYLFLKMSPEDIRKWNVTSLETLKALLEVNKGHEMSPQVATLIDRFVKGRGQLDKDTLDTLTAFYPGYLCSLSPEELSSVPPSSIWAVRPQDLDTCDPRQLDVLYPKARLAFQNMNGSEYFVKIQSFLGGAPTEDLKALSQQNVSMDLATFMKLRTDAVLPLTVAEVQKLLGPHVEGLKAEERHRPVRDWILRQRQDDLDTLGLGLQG
T2 construct: Amine-coupled to a CM5 chip for SPR; also called MSLN; recombinant human mesothelin

Human PD-L1 [3] = target: T1, Human PD-L1; assay: SPR, PD-L1 amine-coupled, variant as analyte, 1:1 model; remark: listed apart in the source
T1 sequence (Q9NZQ7 19-239 limits assumed): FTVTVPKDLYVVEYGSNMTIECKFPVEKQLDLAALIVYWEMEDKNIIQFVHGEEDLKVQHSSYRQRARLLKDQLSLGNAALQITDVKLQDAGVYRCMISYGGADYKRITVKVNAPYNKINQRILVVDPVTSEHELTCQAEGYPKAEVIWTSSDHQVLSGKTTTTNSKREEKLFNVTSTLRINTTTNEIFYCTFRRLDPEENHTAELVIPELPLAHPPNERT

Human CD3 (recombinant) [4] = target: Human CD3 (recombinant) (human); assay: SPR, CD3 amine-coupled, variant as analyte, 1:1 model; remark: listed apart in the source
Cynomolgus monkey PD-L1 = target: T3, Cynomolgus monkey PD-L1 (cynomolgus monkey, UniProt G7PSE7 19-239); assay: SPR, PD-L1 amine-coupled, variant as analyte, 1:1 model
Sequence of Cynomolgus monkey PD-L1 (G7PSE7 entry or part of it): as the sequence (Q9NZQ7 19-239 limits assumed) above, with A33T, A34S, S62N, R68Q, Q82R, F173L, T185A, T192I, H215L counted along it
T3 construct: Amine-coupled to a CM5 chip for SPR; also called recombinant cynomolgus monkey PD-L1

Human PD-L1 [5] = target: T1, Human PD-L1; assay: as above; remark: listed apart in the source
Mouse PD-L1 = target: T4, Mouse PD-L1 (mouse, UniProt Q9EP73 in part, limits assumed); assay: as above
Sequence of Mouse PD-L1 (Q9EP73 19-238 limits assumed): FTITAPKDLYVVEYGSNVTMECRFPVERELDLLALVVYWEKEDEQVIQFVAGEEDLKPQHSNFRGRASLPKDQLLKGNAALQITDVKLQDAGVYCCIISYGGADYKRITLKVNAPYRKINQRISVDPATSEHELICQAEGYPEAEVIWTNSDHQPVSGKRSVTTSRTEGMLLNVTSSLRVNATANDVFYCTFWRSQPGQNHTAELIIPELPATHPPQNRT
T4 construct: Amine-coupled to a CM5 chip for SPR; also called recombinant mouse PD-L1

Row | Binder | Kd (Human CD3 (recombinant) [1]) [nM] | Kd (Human PD-L1 [2]) [nM] | Kd (Human mesothelin) [nM] | Kd (Human PD-L1 [3]) [nM] | Kd (Human CD3 (recombinant) [4]) [nM] | Kd (Cynomolgus monkey PD-L1) [nM] | Kd (Human PD-L1 [5]) [nM] | Kd (Mouse PD-L1) [nM]
1 | B1 | 30 | 440 |  |  |  |  |  | 
2 | B2 | 94 | 120 |  |  |  |  |  | 
3 | B3 | 110 | 6.7 |  |  |  |  |  | 
4 | B4 |  |  | 1 | 4.4 | 79 |  |  | 
5 | B5 | 110 | 1600 |  |  |  | 140 | 110 | 46
6 | B6 | 82 | 300 |  |  |  | 110 | 74 | 57
7 | B7 |  |  |  |  |  | 2.8 | 2.8 | 5.2
8 | B8 | 2.9 | 59 |  |  |  |  |  | 
